Measured values as given in the supplement of paper PMC10338343.
± gives the standard deviation. The full ranking holds about 3,000 sequences; the median of “pre-steady-state target cleavage rate” is about 0.0079, and the highest 2% start at about 0.2. The entries are a selection whose mix differs from that of the whole data set.

What follows are sequences tested on MILI (PIWIL2) piRISC loaded with piRNA #2 (26 nt) (assay: pre-steady-state target cleavage rate (min^-1); MIWI and MILI are mouse PIWI proteins and EfPiwi is from a freshwater sponge; tags in brackets are library labels; higher = faster piRNA-guided slicing of the target). Conditions: guide: piRNA #2 5'p-UUAGGUAACCCAGUAGAUCCAGAGGA; auxiliary factor: 500 nM mouse GTSF1.
In short: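 Cleave-'n-Seq reactions paired 0.1 nM transcribed, DNA-blocked target RNA library with 1 nM active affinity-purified piRISC holding one synthetic guide, plus or minus 500 nM GTSF1 partner protein, in HEPES–potassium acetate buffer at 33 °C for 0–8 or 0–960 min. After sequencing of uncleaved targets and normalisation to depth and weakly complementary targets, the pre-steady-state cleavage rate was taken from a burst-and-steady-state fit. Three trials were pooled, and k3 was capped at 0.0001 min^-1.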

Sequence	pre-steady-state target cleavage rate
CUUAUCGAGUGGAUCUACUGGGUUACCUAA	0.0665 ± 0.015
CUUAAGCUCUGGAUCUAGUGGGUUACCUAA	0.0282 ± 0.0073
CUUAUCCUCUGGAUCAACUGGGUUACCUAA	0.0659 ± 0.012
CUUAACCUGUGGAUCUACUGGGUUACCUAA	0.1 ± 0.015
CUUAAGGAGACCUAGAUCUGGGUUAACCUAA	< 0.0001
CUUAUCCUCUCGAUCUACUGGGUUUCCUAA	0.171 ± 0.045
CUUAAGGAGUGAUCUACUGGGUUACCUAA	0.00697 ± 0.0033
CUUAACCUCUGGAUCUAGUGGGUUACCAAA	0.0493 ± 0.011
CUUAAGCUCACCAUCUACUGGGUUACCUAA	0.00577 ± 0.004
CUUAAGGUCUGGAUCUACUGGGUUAUCCUAA	0.0784 ± 0.018
CUUAUCCAUCUGGAUCUACUGGGUUACCUAA	0.103 ± 0.018
CUUAAGGAGAGGAUCUACUGGGUUACCUUAA	0.0068 ± 0.0052
CUUAAGGUCUGGAUCUACUGGGUUACGUAA	0.0334 ± 0.01
CUUAUCCUCUGGAUCUAGUGGGUUAGCUAA	0.0264 ± 0.0075
CUUAAGGACCUGGAUCUACUGGGUUACCUAA	0.0218 ± 0.013
CUUAUCCUCUGGAACUAGUGGGUUACCUAA	0.107 ± 0.022
CUUAAGCUCUGGUUCUACUGGGUUACGUAA	0.0928 ± 0.036
CUUAAGCUCUGGAUCUACUGGGUAACGUAA	0.0173 ± 0.0066
CUUAAGGACUGGAUCGACUGGGUUACCUAA	0.028 ± 0.017
CUUAACCUCUGGAUCUUCUGGGUUUCCUAA	0.243 ± 0.083
CUUAAGGAGUGGACCUACUGGGUUACCUAA	0.0235 ± 0.0084
CUUAAGCUCUGUGAUCUACUGGGUUACCUAA	0.0332 ± 0.01
CUUAACCUCUGGUUCUACUGCGUUACCUAA	0.0235 ± 0.0092
CUUAAGGACUGGAUCUAGUGGGUAACCUAA	0.0103 ± 0.0079

Sequence	pre-steady-state target cleavage rate
CUUAACCUCUGGAUCUACAGGGUUUCCUAA	0.0711 ± 0.022
CUUAAGGAGACCUUCUACUGGGUUACGAUA	< 0.0001
CUUAAGGACUGGGUCUACUGGGUUACCUAA	0.0227 ± 0.015
CUUAAGGUCUGGAUCCACUGGGUUACCUAA	0.0447 ± 0.01
CUUAAGGAGUGGAUCUAAUGGGUUACCUAA	0.0278 ± 0.0079
CUUAAGGAGUGGAUCUUCUGGGUUACCUAA	0.0205 ± 0.0088
CUUAAGGAGUGGCAUCUACUGGGUUACCUAA	0.128 ± 0.058
CUUAAGCUCUGGAUGUACUGGGUUUCCUAA	0.0435 ± 0.021
CUUAAGCUCUGGUUGUACUGGGUUACCUAA	0.0943 ± 0.018
CUUAUCCAGUGGAUCUACUGGGUUACCUAA	0.0917 ± 0.018
CUUAAGGAGUGGAUCUAGAGGGUUACCUAA	0.0116 ± 0.0037
CUUAAGGAGACCUAGAUGUGGGUUACCUGA	< 0.0001
CUUAAGCUCUGGAUCUUCUGGGUUACGUAA	0.0233 ± 0.0083
CUUAAGCUCUGGAUGUACUGCGUUACCUAA	0.0117 ± 0.0053
CUUAAGCCUGGAUCUACUGGGUUACCUAA	0.104 ± 0.026
CUUAACCUCUGGAUGAACUGGGUUACCUAA	0.0583 ± 0.015
CUUAAGGACUGGAUCUACUGGGUUGACCUAA	0.011 ± 0.0094
CUUAAGGUCUGGAUCUUCUGGGUAACCUAA	0.0086 ± 0.0056
CUUAAGGAGUGGAUCUACUGGGUUACCAA	0.0144 ± 0.005
CUUAACCUCUGGAUCUACGGGUUACCUAA	0.0165 ± 0.0065
CUUAAGGAGUGGAUCUUCAGGGUUACCUAA	0.0231 ± 0.0065
CUUAACCUCUGGAUCUAGUGGGUUAGCUAA	0.0139 ± 0.0064
CUUAAGGUCUGGAUCAACUGGGUUACCAAA	0.0256 ± 0.0083
CUUAAGCUGUGGUUCUACUGGGUUACCUAA	0.0437 ± 0.014

Sequence	pre-steady-state target cleavage rate
CUUAUCCUCUGGAUCUACAGGGUUACCAAA	0.102 ± 0.019
CUUAAGCACUGGAUCUUCUGGGUUACCUAA	0.0825 ± 0.017
CUUAUCCUCUGGCUCUACUGGGUUACCUAA	1.12 ± 0.3
CUUAAGGUCAUGGAUCUACUGGGUUACCUAA	0.0733 ± 0.016
CUUAACCUCUGUAUCUACUGGGUUACCUAA	0.071 ± 0.013
CUUAUCCUCUGGAUCUACAGGGUUACGUAA	0.0553 ± 0.013
CUUAAGCUCUGGAUCUAGUGGGUUACCUUA	0.0243 ± 0.0063
CUUAAGCUCUGGAUAUACUGGGUUACCUAA	0.0695 ± 0.011
CUUAAGGUGUGGAUCUACUGGGUAACCUAA	0.0132 ± 0.0074
CUUAACCUCUGGAUCUUCUGGGAUACCUAA	0.0362 ± 0.013
CUUAAGGUCUGCAUCUACUGGGUUACCUAA	0.0733 ± 0.018
CUUAACCUCUGGAUGUUCUGGGUUACCUAA	0.104 ± 0.021
CUUAAGCUCUGGUUCUACUGGGUAACCUAA	0.0704 ± 0.022
CUUAACUCUGGAUCUACUGGGUUACCUAA	0.0419 ± 0.016
CUUAACCUCUGGAUCUUCUGCGUUACCUAA	0.0107 ± 0.0047
CUUAAGGUCUGGAUCUACUAGGUUACCUAA	0.0507 ± 0.011
CUUAAGCUCUGGAUCUUCUGCGUUACCUAA	0.00616 ± 0.0049
CUUAAGGUCUGAUCUACUGGGUUACCUAA	0.00931 ± 0.005
CUUAAGGAGACCUAGAUGAGGCGUUACCUAA	< 0.0001
CUUAACCUCUGGAUCUACUAGGGUUACCUAA	0.0106 ± 0.0063
CUUAUCCUCUGGAUCUACUGGGUUACCUGA	0.838 ± 0.37
CUUAAGCACUGGAUCUACUGGGUUACCUUA	0.0828 ± 0.015
CUUAAGGUCUGGAUCUACAGGGUUACCUUA	0.0369 ± 0.01
CUUAACCUCUCGAUCUACUGGGUUACCUAA	0.138 ± 0.02

Sequence	pre-steady-state target cleavage rate
CUUAAGGUGUGGAUCUACUGGGAUACCUAA	0.011 ± 0.008
CUUAACCUCAGGAUCUACUGGGAUACCUAA	0.0226 ± 0.0094
CUUAAGCUACUGGAUCUACUGGGUUACCUAA	0.0681 ± 0.02
CUUAAGCUCAGGAUCUACUGGGUUACCUAA	0.0974 ± 0.019
CUUAAGCACUGGAUCUACUGCGUUACCUAA	0.0136 ± 0.0047
CUUAAGGACUGGAUCUAGUGGGUUAGCUAA	0.00844 ± 0.0048
CUUAACCUCAGGAUCUACAGGGUUACCUAA	0.085 ± 0.014
CUUAAGGUCUGGAUCUACUGGGUUACCCUAA	0.0141 ± 0.0067
CUUAAGCUCUGGAUCUACUGGGUUCCCUAA	0.0477 ± 0.017
CUUAAGGACUGGAUCUACAGGGUUACCAAA	0.0404 ± 0.0091
CUUAUCCUCGGAUCUACUGGGUUACCUAA	0.0749 ± 0.03
CUUAUCCUCUGGAUCUACUGGGUUACACUAA	0.158 ± 0.026
CUUAAGCUCCUGGAUCUACUGGGUUACCUAA	0.0877 ± 0.027
CUUAAGGAGUGAAUCUACUGGGUUACCUAA	0.0125 ± 0.0051
CUUAAGCUCUGGAUCUACUGGGUUUACCUAA	0.0504 ± 0.012
CUUAUCCUCUCGAUCUACAGGGUUACCUAA	0.141 ± 0.014
CUUAACCACUGGAUCUACUGGGUUACCUUA	0.0763 ± 0.013
CUUAACCUCUGGAACUACUGGGUUACGUAA	0.118 ± 0.051
CUUAAGCUCAGGAUCUACAGGGUUACCUAA	0.0722 ± 0.013
CUUAAGGAGACCUACUCACUGGGUUACCUAA	< 0.0001
CUUAAGGAGUGGAUCUACUGAGUUACCUAA	0.00781 ± 0.0066
CUUAAGCACUGGAUCUACUGGGAUACCUAA	0.0251 ± 0.0085
CUUAAGCUCUCGAUCUAGUGGGUUACCUAA	0.0939 ± 0.018
CUUAUCCUAUGGAUCUACUGGGUUACCUAA	0.118 ± 0.012

Sequence	pre-steady-state target cleavage rate
CUUAAGGAGACGCAUCUACUGGGUUACCUAA	0.0155 ± 0.0092
CUUAACCUUUGGAUCUACUGGGUUACCUAA	0.112 ± 0.022
CUUAAGCACUGGUUCUACUGGGUUACCUAA	0.199 ± 0.043
CUUAACGUGUGGAUCUACUGGGUUACCUAA	0.0797 ± 0.018
CUUAAGGACUGGAUCUACUGGGUUACCUAC [g2:g22:cont:t1C]	0.0392 ± 0.019
CUUAUCCUCUCGAUCUAGUGGGUUACCUAA	0.127 ± 0.02
CUUAUCCUGUGGAUCUACAGGGUUACCUAA	0.1 ± 0.012
CUUAAGCUCUGGAUCUACUGGGUAACCUUA	0.0521 ± 0.016
CUUAAGGUCUGGUUCUACAGGGUUACCUAA	0.0699 ± 0.01
CUUAUCCUCUGCGAUCUACUGGGUUACCUAA	0.0876 ± 0.015
CUUAUCCUCUGGCAUCUACUGGGUUACCUAA	2.56 ± 1.7
CUUAAGCUGAGGAUCUACUGGGUUACCUAA	0.017 ± 0.0061
CUUAAGGAGACGAUCUACUGGGAUACCUUA	< 0.0001
CUUAACCUCAGGAUCUACUGGGUAACCUAA	0.0373 ± 0.012
CUUAAGGAGACCUACUUCAGGGUUACCUAA	< 0.0001
CUUAAGCUCUGGAUCUACUGGGAUACGUAA	0.0118 ± 0.0052
CUUAACCUGUGGAUGUACUGGGUUACCUAA	0.0757 ± 0.024
CUUAAGCUGUGGAUCUACUGGGUUACGUAA	0.00993 ± 0.0057
CUUAAGCUCUGGAUCUACUGGGUUACCUAU [g2:g24:cont:t1U]	0.0526 ± 0.013
CUUAACCUCUGGAUCUACUGGGUUACCAAA	0.119 ± 0.027
CUUAAGCUGUGGAUCUACUGGGAUACCUAA	0.0121 ± 0.008
CUUAAGGAGAGGAUCCACUGGGUUACCUAA	0.00829 ± 0.0031
CUUAAGGACUGGAUGUACAGGGUUACCUAA	0.028 ± 0.013
CUUAACCUCUGGAUCUAGUGCGUUACCUAA	0.00446 ± 0.0037

Sequence	pre-steady-state target cleavage rate
CUUAAGCUCUGGAUCUACAGGGUUACCAAA	0.0444 ± 0.0094
CUUAAGCUCUGGAUCUACUGGGUGACCUAA	0.0391 ± 0.0094
CUUAAGGAGUGGAUCUACUGGGUUACCUAG [g2:g21:cont:t1G]	0.0456 ± 0.013
CUUAUCCUGUGGAUCUACUGGGUUACCUUA	0.0682 ± 0.013
CUUAAGGAGACCUAGAUGUGGGUGUACCUAA	< 0.0001
CUUAUCCUCAUGGAUCUACUGGGUUACCUAA	0.0555 ± 0.014
CUUAAGGUCUGGAUCUACUGGGUUUCCUUA	0.0192 ± 0.0066
CUUAAGGACUGGAUAUACUGGGUUACCUAA	0.0382 ± 0.018
CUUAAGGACUGGAUCUACUGGGUUACCUCA	0.0211 ± 0.012
CUUAUCCUCUGGAUCUACUGGGUUAGCAAA	0.0899 ± 0.026
CUUAAGCUCUGGAUCUACUUGGUUACCUAA	< 0.0001
CUUAUCGUCUGGAUCUUCUGGGUUACCUAA	0.0438 ± 0.011
CUUAAGGUCUGGAUCUACUGGGGUACCUAA	0.0151 ± 0.0067
CUUAUCCUUUGGAUCUACUGGGUUACCUAA	0.112 ± 0.021
CUUAUCCUCUGGAUCUACUCGGUUAGCUAA	< 0.0001
CUUAAGCACUGGAUCUACUGGGUUACGUAA	0.028 ± 0.0099
CUUAUCCACUGGAUCUACUGGGUUUCCUAA	0.123 ± 0.034
CUUAAGCUCUGGAUCUACUGGGUUAACUAA	0.095 ± 0.017
CUUAACCUCUGGAUCUACUGGGUUACCUAC [g2:g25:cont:t1C]	0.0951 ± 0.016
CUUAUCCUCUGGAUCUACUGGGUUACCUAA [g2:g26:cont:t1A]	0.125 ± 0.023
CUUAAGCUCUGGAUCUACGGGGUUACCUAA	0.0564 ± 0.0096
CUUAACCUCACGAUCUACUGGGUUACCUAA	0.0838 ± 0.019
